Measured values published in article PMC4336329 (PLoS ONE, 2015).
In all, about 310,000 compounds went through this assay and about 14,000 (4.5%) showed an effect of 50% or more. The effect is printed as a negative number. The list shows a part of the results.

molecular target: human ether-à-go-go-related gene (hERG) potassium channel (human, UniProt Q12809); assay: primary screen, population patch clamp on CHO cells stably expressing hERG
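Also: peak tail current of the secondary pulse compared with the same well before compound.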

human ether-à-go-go-related gene (hERG) potassium channel, sequence (Q12809 whole entry, looked up): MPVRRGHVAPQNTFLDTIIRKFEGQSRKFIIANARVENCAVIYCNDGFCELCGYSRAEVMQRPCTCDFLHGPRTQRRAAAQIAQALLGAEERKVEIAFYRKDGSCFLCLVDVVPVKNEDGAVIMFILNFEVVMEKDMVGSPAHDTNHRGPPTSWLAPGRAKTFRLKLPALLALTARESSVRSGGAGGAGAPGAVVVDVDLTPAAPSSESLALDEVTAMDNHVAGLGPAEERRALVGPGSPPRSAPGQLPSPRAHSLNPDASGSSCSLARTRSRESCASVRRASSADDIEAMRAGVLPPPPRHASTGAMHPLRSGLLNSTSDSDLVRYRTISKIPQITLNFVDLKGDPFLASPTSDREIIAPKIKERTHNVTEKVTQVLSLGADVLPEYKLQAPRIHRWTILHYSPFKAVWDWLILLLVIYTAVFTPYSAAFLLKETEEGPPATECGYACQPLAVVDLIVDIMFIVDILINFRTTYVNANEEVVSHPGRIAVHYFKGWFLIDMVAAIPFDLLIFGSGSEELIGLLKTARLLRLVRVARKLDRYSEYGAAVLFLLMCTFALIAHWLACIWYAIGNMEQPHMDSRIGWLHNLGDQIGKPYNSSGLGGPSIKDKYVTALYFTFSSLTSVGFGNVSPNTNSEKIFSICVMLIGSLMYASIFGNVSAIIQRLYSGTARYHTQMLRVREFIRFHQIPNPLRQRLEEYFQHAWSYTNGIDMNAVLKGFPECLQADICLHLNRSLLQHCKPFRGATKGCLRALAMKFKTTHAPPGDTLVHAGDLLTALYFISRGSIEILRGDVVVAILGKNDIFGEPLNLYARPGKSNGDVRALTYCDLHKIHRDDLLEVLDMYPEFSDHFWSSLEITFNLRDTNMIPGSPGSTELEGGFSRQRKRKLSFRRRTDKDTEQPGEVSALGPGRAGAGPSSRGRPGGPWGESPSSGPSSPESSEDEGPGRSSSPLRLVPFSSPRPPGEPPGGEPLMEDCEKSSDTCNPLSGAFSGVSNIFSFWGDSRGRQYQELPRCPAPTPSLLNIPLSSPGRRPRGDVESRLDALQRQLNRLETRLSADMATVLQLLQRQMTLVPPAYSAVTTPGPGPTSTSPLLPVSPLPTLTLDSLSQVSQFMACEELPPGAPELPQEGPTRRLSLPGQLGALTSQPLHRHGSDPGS

SMILES | hERG current change (%, negative = inhibition) at 10uM
Cc1ccc(S(=O)(=O)N2CCN(C(=O)c3cc(=O)[nH]c4ccccc34)CC2)c(C)c1 | -22.9%
CC(C)c1ccc(NC(=O)NCc2ccc(F)cc2)cc1 | 10.6%
O=C(CCNS(=O)(=O)c1cccs1)NCc1ccccc1 | 49.9%
O=C(CSc1nc2c(cnn2-c2cccc(Cl)c2)c(=O)[nH]1)NCC1CCCO1 (centres unmarked) | 10.2%
O=C1CCCc2c1[nH]c1ccc(Cl)cc21 | 7.86%
Cc1cc(Oc2nc3c(C)cccn3c(=O)c2/C=C(\C#N)S(=O)(=O)c2ccc(Cl)cc2)ccc1Cl | -10.7%
COC(=O)CC1C(=O)NCCN1C(=O)CSc1nnnn1-c1ccc(OC)cc1 (centres unmarked) | 17.7%
Cc1cccnc1NC(=O)CNC(=O)C12CC3CC(CC(C3)C1)C2 | 0.0801%
COc1ccc(N2CCN(c3ccc([N+](=O)[O-])nc3)CC2)cc1 | -36%
Cc1ccc(NC(=O)CCCc2nc3ccccc3s2)c(O)c1 | -15.9%
COc1cc(C2OC(=O)c3ccccc3S2)cc(OC)c1OC (centres unmarked) | 11.5%
CCn1nc(C)c(CN2CCC(n3nccc3NC(=O)c3ccc4c(c3)OCO4)CC2)c1C | -4.09%
COc1cc(/C=C/C(=O)O)ccc1O | -1.72%
COc1ccccc1CNC(=O)C1CCCN(S(=O)(=O)c2cccs2)C1 (centres unmarked) | 0.808%
COC(=O)C1C(=O)/C(=C(/C)N2CCCC2)C(=O)CC1(C)C (centres unmarked) | 3.79%
COc1ccc(-c2csc(CCn3nc(C)cc3C)n2)cc1OC | 4.85%
CCCCN(CC)CCCNC(=S)Nc1ccc2nc(N3CCN(CC)CC3)cc(C)c2c1 | -4.57%
COc1ccc(NS(=O)(=O)c2ccc(-c3coc(C)n3)cc2)c(OC)c1 | 18.1%
C(=N\n1cnnc1)/c1ccc2ncccc2c1 | -4.7%
CCOc1ccc(C(=O)CCC(=O)NNC(=O)c2ccccc2O)cc1 | 14.7%
CN(C)S(=O)(=O)N1CCc2ccccc2C1 | 2.94%
COc1ccc(Cl)cc1NC(=O)CN(C)C(=O)c1sccc1-c1ccccc1 | 11.2%

SMILES | hERG current change (%, negative = inhibition) at 10uM
COc1ccc(OC)c2[nH]c(=O)c(CCNS(=O)(=O)c3ccccc3)cc12 | 1.57%
C=C1C(=O)O[C@H]2C1CC[C@@](C)(O)C13C=CC(C)(C21)C1(C3)C(=O)O[C@@H]2C3C(C)=CCC3[C@](C)(O)C[C@H](OC(C)=O)C21 (some centres unmarked) | 2.81%
NC(=O)c1ccsc1NC(=O)C1CCN(S(=O)(=O)c2cccs2)CC1 | -52.4%
O=C1CCCC/C1=N\Nc1ccc(OCc2ccccc2)cc1 | 5.78%
COc1ccc2ccccc2c1/C=N/NC(=O)c1nnn(-c2nonc2N)c1C(C)C | 16.7%
CCOC(=O)C1=C(C)N(CCCCCC(=O)O)C(=O)NC1c1ccccc1OC(=O)c1cccs1 (centres unmarked) | -35.8%
CCOC(=O)c1ncn2c1C(=O)OC2(C)C | 12.6%
C=CCN=Cc1c(C)[nH]n(-c2ccccc2)c1=O | 4.17%
O=C(/C=C/c1ccc([N+](=O)[O-])cc1)N1CCN(Cc2ccccc2)CC1 | -66.8%
CC1(C)C2CCC1(CS(=O)(=O)NC(CC(=O)O)c1cccc(Br)c1)C(=O)C2 (centres unmarked) | 17.7%
COc1cccc(OC)c1C(=O)OCC(=O)NCC(C)C | 24.7%
Cc1ccc(SCC(=O)NCC(C)C)cc1 | 9.35%
CCCc1ccc(C(C)NC(=S)NCc2ccc(F)cc2)cc1 (centres unmarked) | 18.6%
CSCCC(NC(=O)COc1ccccc1)C(=O)OCCOc1ccc(F)cc1 (centres unmarked) | -30.3%
Cc1ccc(-n2ncc3c2CC(C)(C)CC3NC(=O)CCc2cccnc2)cc1 (centres unmarked) | -63.9%
O=C1c2ccccc2C(=O)N1c1ccc(Br)c2cccnc12 | 19.9%
O=C(c1cccc(Cl)c1)N1CCN(Cc2ccccc2)CC1 | -8.35%
Cc1c(Cl)c([N+](=O)[O-])nn1CC(=O)N1CCCC1 | -4.86%
CC(Sc1ccccc1)C(=O)Nc1cccc(N(C)S(C)(=O)=O)c1 (centres unmarked) | 12.9%
CCCCCCCCNC(=O)/C(C#N)=C/c1ccccc1[N+](=O)[O-] | -7.82%
CCOC(=O)C1=C(O)CSC1=Nc1cccc2ccccc12 | 1.88%
COCCNC(=O)C(OC(=O)c1ccco1)c1ccccc1Cl (centres unmarked) | 15.3%
